In the supplement of paper PMC4723716:
The full ranking holds about 3,600 compounds; the median of “viability index relative to DMSO control” is about 0.81, and the lowest 2% start at about 0.13. The list shows a part of the results.

These compounds were tested on Plasmodium falciparum NF54 stage V gametocytes (assay: viability index relative to DMSO control (fraction); higher = less gametocyte killing). Conditions: 1.25 µM, incubation time: 72 h.
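Also: 384-well serum-free SaLSSA: MitoTracker Red CMXRos staining with saponin lysis, high-content imaging, treated-well particle count divided by plate-mean count of DMSO wells.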

SMILES | viability index
CCOc1ccc(N=C2NC(=O)SC2=C2C(=O)Nc3ccc(Br)cc32)cc1 | 1.01
CCOc1ccc2[nH]c(=O)c(CN(CCN3CCCC3)C(=S)Nc3ccc(F)cc3)cc2c1 | 0.885
Clc1ccccc1-c1nc([P+](c2ccccc2)(c2ccccc2)c2ccccc2)c(N2CCOCC2)o1 | 0.265
O=C(NC1CCCCC1)c1noc2c1CCCCC2 | 1.2
CCc1ccc2[nH]c(=O)c(CN(CCO)C(=S)Nc3ccccc3CC)cc2c1 | 0.724
CCCC(=O)NC(c1cccc([N+](=O)[O-])c1)c1ccc2cccnc2c1O (configuration not stated) | 0.67
Cc1cc(C)[n+](C)n1CC(O)Cn1c2ccccc2c2ccccc21 (configuration not stated) | 0.789
CCN1CC=C2C(C#N)=C(N)C(C#N)(C#N)[C@H](c3ccc(C)s3)[C@H]2C1 | 1.1
Cc1cc(O)ccc1-c1cnc2ccccc2n1 | 1
CCn1c(CSc2nc(C)cc(C)n2)nnc1SCC(N)=O | 1.13
Cn1cc(S(=O)(=O)c2cccc(Cl)c2)c(=O)c2cc(F)c(N3CCCCC3)cc21 | 0.843
CCOc1ccc2nc(C)c(CN(C)Cc3ccccc3)c(O)c2c1 | 0.68
Oc1ccccc1CN1CCN(C(c2ccccc2)c2ccccc2)CC1 | 0.65
CCN(CC)c1ccc(C=Cc2cccc[n+]2CC)cc1 | 0.851
COC(=O)CNC(c1ccccc1)c1cc(Br)ccc1NC(=O)C(Cc1ccccc1)NC(=O)OCc1ccccc1 (configuration not stated) | 1.14
CC(=O)Nc1ccc2nc(C)sc2c1 | 0.764
CCc1nc2nc(C)cc(Nc3ccc4c(c3)OCCO4)n2n1 | 1.09
COc1ccc(CNC2CCN(c3cccc(NC(=O)C4CC4)c3)CC2)cc1 | 1.12
COc1ccc(-n2c(SCC(=O)Nc3cc(Cl)ccc3OC)nnc2-c2ccccc2)cc1 | 0.76
Cc1cc(N2CCCCC2)nc(NCc2ccccc2)n1 | 0.743
O=C(Cc1ccccc1)NCc1nnc(SCC(=O)N2N=C(c3cccs3)CC2c2ccc(F)cc2)n1Cc1ccccc1 (configuration not stated) | 0.884
Cc1nc(N)sc1C(=O)NN=Cc1cccc(Br)c1 | 0.971
CCN1/C(=C/C=C/c2oc3ccc4ccccc4c3[n+]2CC)Oc2ccc3ccccc3c21 | 0.4

SMILES | viability index
CCN(CC)CCNc1ccnc2cc(Cl)ccc12 | 0.947
O=C(NC1CCN(Cc2ccccc2)CC1)c1cc([N+](=O)[O-])cc([N+](=O)[O-])c1 | 1.03
COC(=O)[C@@H]1C[C@@H](NC(=O)c2ccc(OC)cc2OC)CN1Cc1cccc2ccccc12 | 1.08
O=C1C(=O)c2ncccc2-c2cccnc21 | 0.995
CCOc1ccc(NC(=O)c2ccc(I)o2)cc1 | 0.902
COc1cc(NC2=CC(=O)C(=O)c3ccccc32)c(OC)cc1Cl | 0.668
Cc1cc(C)n(CC(O)Cn2c3ccc(Br)cc3c3cc(Br)ccc32)n1 (configuration not stated) | 1.02
CC(=O)Nc1nc(C)c(-c2csc(Nc3ccc(Cl)cc3)n2)s1 | 0.362
O=C(NC(=CC=Cc1ccccc1)C(=O)N1CCOCC1)c1ccccc1 | 0.771
CC[n+]1c(C=C2Sc3ccccc3N2CCO)ccc2cc(C)ccc21 | 0.865
N#CC(C#N)C(C(Sc1ccc([N+](=O)[O-])cc1)=C(O)c1ccccc1)c1cccs1 (configuration not stated) | 1.22
O=C(Oc1ccccc1N1C(=O)C2C3C=CC(C3)C2C1=O)c1ccc([N+](=O)[O-])cc1 (configuration not stated) | 0.955
CN(C)CCN(C)Cc1cc(Br)cs1 | 1.08
CCC(=O)N1c2ccccc2NC2=C(C(=O)CC(C)(C)C2)C1c1ccc2c(c1)OCO2 (configuration not stated) | 0.857
CC1CN(C(=O)C(Cl)(Cl)Cl)C(C)CN1C(=O)C(Cl)(Cl)Cl (configuration not stated) | 0.8
COC(=O)C1=C(C)NC2=C(C(=O)CC(c3ccccc3Cl)C2)C1c1ccc(OC)c(OC)c1 (configuration not stated) | 0.845
Cc1c(Cl)cccc1NC(=O)CCC(=O)NNC(=O)c1ccccc1 | 0.9
COc1cc(CNc2ccc(N3CCCCC3)cc2)cc(Cl)c1OCc1ccc(F)cc1 | 0.923
N#Cc1ccc(N2CCCN(C(=S)NC3CCCC3)CC2)nc1 | 0.51
COc1cc2c(-c3cc(Br)ccc3O)nc3c(c(-c4ccccc4)nn3-c3ccccc3)c2cc1OC | 0.633
O=C1Nc2ccc(Br)cc2C12NCCc1c2[nH]c2ccccc12 (configuration not stated) | 0.548
COc1cc(C=NNC(=O)Cc2nnc(N)s2)ccc1O | 0.873
Clc1ccccc1C[n+]1cc(-c2ccccc2)n2c1CCC2 | 0.978

SMILES | viability index
O=C(Nc1cccc(-c2nc3ccccc3[nH]2)c1)c1ccccc1[N+](=O)[O-] | 0.96
Fc1ccc(Nc2nc(NCC3CCCO3)c3ccccc3n2)cc1 (configuration not stated) | 1.06
CN1CCN(c2nc(Nc3ccc(O)cc3)nc3ccccc23)CC1 | 1.13
CC(C)CC(=O)Nc1nnc(-c2ccc(Br)cc2)s1 | 0.957
O=C(Nc1ccccc1C(=O)O)c1cccc(NC(=O)c2ccco2)c1 | 0.73
CCN(CC)CCCN(Cc1cc2cc(OC)ccc2[nH]c1=O)C(=S)Nc1ccc(C)cc1 | 0.817
Cc1c2c(cc3c1ccc1ccccc13)C[N+]1(CCCCC1)C2 | 0.801
Cc1ccc2cc(C)c(Nc3ccc(Cl)cc3)nc2c1 | 0.54
OC(COc1ccc(OCC(O)CN2CCN(CCOc3ccccc3)CC2)cc1)CN1CCN(CCOc2ccccc2)CC1 (configuration not stated) | 0.828
COc1ccc(Nc2nc(NN=Cc3cccc(F)c3)nc(Nc3ccc([N+](=O)[O-])cc3)n2)cc1 | 0.628
Cc1nc2ccc(Cl)cc2c(O)c1I | 0.834
Oc1ccc(-c2cccnc2)cc1CNC1C2CC3CC(C2)CC1C3 (configuration not stated) | 0.519
O=C1[C@@H]2Cc3c([nH]c4ccccc34)C(CCc3ccccc3)N2C(=O)CN1CCc1c[nH]c2ccccc12 (some centres not stated) | 1.42
COc1ccc(C2CC(=O)C3=C(C2)NC(C)=C(C(=O)OC(C)C)C3c2ccccc2C)cc1OC (configuration not stated) | 0.251
CCOC(=O)c1c(CNCCN(CC)CC)n(C)c2cc(Br)c(O)cc12 | 0.827
COC(=O)COc1ccc(C=C2SC(=Nc3ccc(F)cc3)NC2=O)cc1 | 0.925
CCOC(=O)C1=C(C)N(CCNc2ncc(C(F)(F)F)cc2Cl)C(=O)CC1 | 1.04
c1ccc(-c2csc(Nc3nc4cc5c(cc4s3)OCO5)n2)nc1 | 0.273
Cc1ccccc1C[n+]1cc(-c2ccc(Cl)cc2)n2c1CCC2 | 1.18
CN(CC(=O)NC(C)(C)C)S(=O)(=O)c1ccccc1 | 1.07
CCN1C(=Cc2sc3ccccc3[n+]2C)C=Cc2ccc(C)cc21 | 0.51
CCOC(=O)C1=C(C)NC2=C(C(=O)C(C(=O)OC)C(C)C2)C1c1cc(Br)c(OC)c(OCC)c1 (configuration not stated) | 0.839
CC1CCN(C(=O)C2CCCN(S(=O)(=O)c3ccc4[nH]c(-c5ccccc5)nc4c3)C2)CC1 (configuration not stated) | 0.96

SMILES | viability index
COc1ccc(C=NNc2cc(C)nc(-c3ccccc3)n2)cc1OC | 0.86
CCOC(=O)c1c(NC(=O)CSc2nnc(CNC(=O)c3cccs3)n2-c2cccc(Cl)c2)sc2c1CCCC2 | 0.801
Cc1c(Cl)cccc1NC(=S)N1CCCN(c2ccc(C(F)(F)F)cc2[N+](=O)[O-])CC1 | 0.398
Cc1ccc(-c2cn3c([n+]2-c2ccc(C)cc2)CCCCC3)cc1 | 0.888
COc1ccccc1NC(=O)CCCC(=O)OC(C)C(=O)c1ccccc1 (configuration not stated) | 1
CCCC(=O)N1c2ccc(OC)cc2-c2c(ssc2=S)C1(C)C | 0.566
O=C(C1CCN(c2nnnn2-c2ccccc2)CC1)N1CCc2ccccc2C1 | 0.826
COc1ccc(CNCc2cc3c(-c4ccc(C)cc4)nn(-c4ccccc4)c3[nH]c2=O)cc1 | 0.551
CC[N+](CC)=c1scc(-c2ccc([N+](=O)[O-])cc2)s1 | 0.668
COc1cc(CN2CCN(c3ccccn3)CC2)cc(I)c1O | 0.935
CC1=C(C(=O)OC2CCCCC2)C(c2cccc([N+](=O)[O-])c2)C2=C(CCCC2=O)N1 (configuration not stated) | 0.728
COc1cccc(C2Sc3ccccc3NC3=C2C(=O)c2ccccc23)c1 (configuration not stated) | 0.909
OC(CNc1cccc2ccccc12)Cn1c2ccc(Cl)cc2c2cc(Cl)ccc21 (configuration not stated) | 0.649
O=C1NN(c2ccc(Br)cc2)C(=O)C1=Cc1c(O)ccc2ccccc12 | 0.993
O=C(C[n+]1cc(-c2ccc(F)cc2)n2c1CCC2)Nc1ccc(Cl)cc1 | 1.44
CN(Cc1ccccc1)C(=O)CSc1nc(NCc2ccccc2)c2ccccc2n1 | 0.975
CCOC(=O)N1CCN(C(=O)C(=O)NNC(=O)COc2ccc(Cl)cc2Br)CC1 | 1.08
O=C(COc1ccccc1Cl)OCc1cc(=O)n2nc(C3CC3)sc2n1 | 1.36
COc1ccc(C(OCCS(=O)(=O)CCO)(c2ccccc2)c2ccc(OC)cc2)cc1 | 0.0248
Cc1ccc(-c2c[n+](Cc3ccc(Cl)cc3)c3n2CCC3)cc1 | 0.848
CCN1C(=Cc2sc3cc(NC(C)=O)ccc3[n+]2CC)C=Cc2cc(C)ccc21 | 0.645
c1ccc2c(c1)[nH]c1c(NCCN3CCCCC3)ncnc12 | 1.09
CCN1CCN(c2cc(C)c(C#N)c3nc4ccccc4n23)CC1 | 0.844
